# Experimental data as given in PubChem BioAssay AID1460 (National Center for Advancing Translational Sciences (NCATS), 2008).
# Screen size: about 270,000 compounds; about 5,800 (2.1%) were called active. Inconclusive results, whose numbers are uncertain, are shown with a selection of clear calls. The call rests on the fitted dose curve; in most records, active means well fitted inhibition curve with a large enough effect; inconclusive means small, poorly fitted or top-dose-only effect; inactive means flat fitted curve, though single readings scatter. Where the call is inconclusive, the potency comes from a doubtful curve fit.
# Target: Microtubule-associated protein tau (Homo sapiens) (UniProt P10636)
# Chain of UniProt P10636 (P10636 whole entry, looked up): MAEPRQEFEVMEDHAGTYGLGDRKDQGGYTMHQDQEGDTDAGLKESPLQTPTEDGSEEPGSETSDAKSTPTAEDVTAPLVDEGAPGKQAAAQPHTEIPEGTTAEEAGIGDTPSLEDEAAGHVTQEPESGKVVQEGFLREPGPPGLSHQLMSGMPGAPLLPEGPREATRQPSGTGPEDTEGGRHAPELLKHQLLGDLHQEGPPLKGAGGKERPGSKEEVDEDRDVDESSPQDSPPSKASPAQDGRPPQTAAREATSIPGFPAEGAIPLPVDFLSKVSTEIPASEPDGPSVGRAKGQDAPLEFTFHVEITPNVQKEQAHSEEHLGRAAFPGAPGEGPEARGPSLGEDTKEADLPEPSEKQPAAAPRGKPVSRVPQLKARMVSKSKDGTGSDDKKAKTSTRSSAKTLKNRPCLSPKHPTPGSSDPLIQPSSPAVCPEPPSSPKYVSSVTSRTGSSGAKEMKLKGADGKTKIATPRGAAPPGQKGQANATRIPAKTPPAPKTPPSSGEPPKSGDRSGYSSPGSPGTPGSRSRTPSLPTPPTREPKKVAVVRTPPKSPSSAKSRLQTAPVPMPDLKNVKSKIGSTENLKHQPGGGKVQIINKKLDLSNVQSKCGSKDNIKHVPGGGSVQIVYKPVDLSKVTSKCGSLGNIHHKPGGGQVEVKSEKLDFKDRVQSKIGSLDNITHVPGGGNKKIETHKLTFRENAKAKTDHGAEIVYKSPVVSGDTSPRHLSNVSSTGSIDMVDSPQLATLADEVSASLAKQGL
# Test: qHTS for Inhibitors of Tau Fibril Formation, Thioflavin T Binding; further: nearly all actives have a fitted effect of over 55% in size
# Conditions: recombinant tau K18 P301L (four-repeat tau fragment), heparin-induced fibrillization, ThT fluorescence; series mostly up to 57.4 µM; activity, negative = inhibition: at the top concentration
# Summary of the method: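 Heparin-induced fibrillization of the P301L-mutant K18 repeat-domain fragment of human tau was followed by ThT binding in quantitative high-throughput format.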
# On the % scale 0 is the no-effect control and ±100 the full control effect; potency means the concentration at half of the fitted maximal effect; tags describe the fitted curve by direction and shape.
SMILES,Potency,"activity, negative = inhibition"
COc1ccc(-c2noc(CCCOc3ccc(Cl)cc3Cl)n2)cc1,"inconclusive: 7.08 µM [inhibitor, partial curve]",
O=[N+]([O-])c1cc(Cl)ccc1Oc1ccc(-c2nnco2)cc1,,inactive: -16.5%
O=C(/C=C/Nc1ccccc1Br)c1ccccn1,"inconclusive: 22.4 µM [inhibitor, single point]",
NC(=O)c1c(NC(=O)CSc2nnc(-c3ccco3)n2-c2ccccc2)sc2c1CCC2,"inconclusive: 15.8 µM [inhibitor, partial curve]",
CCOc1ccccc1N1CCN(c2nc(N)c(C#N)c(CC#N)c2C#N)CC1,"inconclusive: 25.1 µM [inhibitor, partial curve]",
CN1CCN(c2oc(-c3ccc([N+](=O)[O-])cc3)nc2C#N)CC1,"inconclusive: 39.8 µM [inhibitor, single point]",
Cc1ccc2c(c1)c1c(n2CC(O)CNC(C)(C)C)CCCC1 (centres undefined),,inactive: -13.4%
O=C(CSc1nnc(-c2ccncc2)n1Cc1ccco1)c1ccc(Cl)cc1,"inconclusive: 20 µM [inhibitor, partial curve]",
Cc1nnc(N/N=C/c2ccc(-c3ccc(Br)cc3)o2)n1N,active: 7.94 µM,
COc1ccc(C(=O)Nc2ccc3oc(-c4cccc(F)c4)nc3c2)cc1OC,"inconclusive: 0.224 µM [inhibitor, full curve, poor fit]",
c1coc(-c2nc3n(n2)C2(CCCCC2)[C@@H]2CCCC[C@@H]2N3)c1,,inactive: 2.2%
CC(C)C(=O)N1CCN(c2nc(-c3ccc(Cl)cc3)cs2)CC1,"inconclusive: 11.2 µM [inhibitor, partial curve]",
CCOC(=O)N1CCN(CC(=O)n2c(C)c(C)c3ccccc32)CC1,"inconclusive: 35.5 µM [inhibitor, single point]",
NC(Cc1ccc(O)c(O)c1)C(=O)O (centres undefined),active: 11.2 µM,
COc1cc(CN2CCCC(C(=O)c3ccc4c5c(cccc35)CC4)C2)cc(OC)c1O (centres undefined),active: 28.2 µM,
CC(C)(C)NC(=O)CN(C(=O)CS(=O)CC(=O)Nc1ccc(F)cc1)c1ccccc1 (centres undefined),,inactive: 1.69%
CCOc1cc(NC(=S)Nc2ccccc2)c(OCC)cc1NC(=O)c1ccccc1,"inconclusive: 20 µM [inhibitor, partial curve]",
CCCC[C@H]1C[C@@H]1[C@@H]1N(P(=O)(c2ccccc2)c2ccccc2)C[C@@](O)(c2ccccc2)CC12CC2,"inconclusive: 22.4 µM [inhibitor, single point]",
O=C(CN1CC[n+]2c(-c3cccs3)csc21)c1ccc(Br)cc1,"inconclusive: 8.91 µM [inhibitor, full curve]",
Cc1ccc2c(c1)c(=O)c(C(=O)c1ccc3c(c1)OCO3)cn2Cc1ccc(Cl)cc1,"inconclusive: 39.8 µM [inhibitor, single point]",
Cc1cccc(NC2=C(Cl)C(=O)OC2OC(=O)c2ccco2)c1 (centres undefined),"inconclusive: 11.2 µM [inhibitor, partial curve]",
Cc1ccc(CO/N=C\Cc2snc(Sc3ncc(C(F)(F)F)cc3Cl)c2C#N)cc1,"inconclusive: 8.91 µM [inhibitor, partial curve]",

SMILES,Potency,"activity, negative = inhibition"
O=C(Nc1cccc(C(F)(F)F)c1)C1CCCN1S(=O)(=O)c1cccc2nsnc12 (centres undefined),,inactive: -7.1%
CN=c1scc(C)n1/N=C/c1ccc2c(c1)OCO2,active: 11.2 µM,
Cc1cc(C)cc(OC(C)C(=O)Nc2c(C(=O)c3ccccc3)oc3ccccc23)c1 (centres undefined),"inconclusive: 15.8 µM [inhibitor, single point]",
Cc1ccc(NC(=O)c2ccc(CSc3nnc(C)s3)cc2)c(C)c1,"inconclusive: 28.2 µM [inhibitor, single point]",
Cc1ccc(CCNC(=O)c2ccc3c(c2)N(Cc2cccc(Cl)c2)C(=O)c2ccccc2S3(=O)=O)cc1,,inactive: 10.6%
Cc1cc(Nc2ccc(Cl)cc2)nc(NCc2ccccc2)n1,,inactive: -17.8%
CCOc1ccc(N2Cc3ccccc3C2)cc1,"inconclusive: 25.1 µM [inhibitor, partial curve]",
OCCCNc1nc(-c2ccccc2)nc2c1oc1ccccc12,,inactive: -3.51%
CC1(C)OC(=O)C(=CNC(Cc2c[nH]c3ccccc23)C(=O)O)C(=O)O1 (centres undefined),,inactive: -7.69%
COc1ccc(O)c(-c2cc(-c3cccs3)[nH]n2)c1,"inconclusive: 14.1 µM [inhibitor, partial curve]",
COc1cc2c(cc1OC)CN(c1ccc(-c3ccccc3OC)nn1)CC2,"inconclusive: 1.26 µM [inhibitor, partial curve]",
CC1Cc2ccccc2N1Cc1nc2cc(C(F)(F)F)ccc2c(=O)[nH]1 (centres undefined),"inconclusive: 25.1 µM [inhibitor, partial curve]",
Cc1cccc(C(=O)Nc2nnc(S(=O)(=O)N(C)c3ccccc3C)s2)c1,"inconclusive: 2.24 µM [inhibitor, full curve]",
CCCc1nn(C)c(C(=O)Nc2ccc(C)c(C)c2)c1Cl,"inconclusive: 14.1 µM [inhibitor, partial curve, poor fit]",
CC(C)OC(=O)c1ccc(NC(=O)CSc2nc3ncccc3[nH]2)cc1,"inconclusive: 22.4 µM [inhibitor, single point]",
Cc1ccnc(-n2sc3ccccc3c2=O)n1,active: 14.1 µM,
CCN(C(=O)CSc1nc(-c2ccc(C(C)C)cc2)no1)c1cccc(C)c1,"inconclusive: 14.1 µM [inhibitor, partial curve]",
COCCCNC(=O)C1CCN(c2nc3ccc(C)cc3[nH]2)CC1,,inactive: -0.0769%
N#C/C(=C\C1=C(N2CCOCC2)C(=C\c2ccccc2)/CC1)C(=O)Nc1ccccc1F,active: 3.16 µM,
O=C(Cc1cccs1)OCC(=O)c1ccco1,"inconclusive: 28.2 µM [inhibitor, single point]",
CCN1CCN(CCNC(=O)c2ccc3c(c2)N(Cc2ccc(F)cc2)C(=O)/C(=C/c2ccccc2)S3)CC1,"inconclusive: 39.8 µM [inhibitor, single point]",
Clc1ccc(Cl)c(-c2ccc(/C=N/c3ncn[nH]3)o2)c1,"inconclusive: 35.5 µM [inhibitor, partial curve]",
